Data reported in the RNAGym collection of RNA variant scans (doi:10.1093/nar/gkz1192).
Read counts are not given, so values of variants with three or more changes are uncertain.

B1: CPEB3 Ribozyme (parent)
chain: UAACAGGGGGCCACAGCAGAAGCGUUCACGUCGCAGCCCCUGUCAGAUUCUGGUGAAUCUGCGAAUUCUGCUGUAUAUCUC

Variants of: B1
Assay: self-cleavage, relative activity (ratio to wild type); higher = more cleavage; in vitro, sequencing
Method in brief: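 Libraries of CPEB3 self-cleaving ribozyme mutants came from rounds of error-prone PCR and carried barcodes, which DNA sequencing matched to variants. In vitro transcription used T7 RNA polymerase at 37°C for 5 hours, with a further 15 min in DNase I before EDTA stopped the reaction; the ribozymes cleaved during both steps. The RNA was reverse transcribed with template switching and sequenced on Illumina. Relative activity is the cleaved/total read fraction of a variant divided by that of the unmutated ribozyme, averaged over three batches with at least 5 reads.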

Variant | self-cleavage
A15G U54C U60A A64U | 0.15
A15G U41C G52U A57U U60C | 0.12
A15U A20U U54A | 0.19
A15G U60G U69C | 0.15
A15U A21G A35U U58C | 0.1
A15G U43A U51A A65G | 0.3
A15U A64G U67G | 0.17
A15U A20U U60C U78C | 0.2
A15G U43C U51C | 0.19
A15U A18G A20G C34U A65G U67A | 0.06
A15G U26C U41G A45G G52U A64U | 0.07
A15U A18U U31A C32U C37G U54A A75G | 0.14
A15U A18U U26C U41A | 0.07
A15U A21U G46U U80C | 0.22
A15U A20G U26A A35G A56U A65U U78C | 0.26
A15G U43A A45U U51A A65G | 0.11
A15U A18U U25C A47G U51A A65G A75U | 0.16
A15U A35G A47U U78A | 1.25
A15U A21G G42A U43A A45G A47G A56U | 0.03
A15G U31A U43C U80C | 0.31
A15U A21G U31A C38A U60A | 0.2
A15U A35G U67C | 0.59
A15G U43A A45C C62U U78A | 0.17
A15U A18C U43C A45U U49C U74A | 0.07

Variant | self-cleavage
A15G U26C C29U | 0.31
A15G U41A G46A G52A | 0.06
A15U A56G U60C | 0.14
A15U A21G U41A U43C U69A | 0.53
A15G U41C U76C | 0.88
A15U A18U A20G U25A A35G | 0.08
A15G U26C U31C U43A | 0.39
A15U A45G A65G | 0.04
A15G U43G U78A | 0.32
A15U A35G U72C | 1.28
A15U A35G A47G U48C U66A U74C | 0.16
A15G U31A A47G U72C | 0.71
A15U A18G U25C A64G U67C | 0.12
A15U A18G C32A G33A A57G A64G | 0.13
A15G U26C G52C U58C U60C U67C U72A | 0.17
A15U A18G A35G | 0.92
A15G U41C U49C U69C | 0.12
A15G U49A U54C A56U | 0.83
A15G U49A U54A U76G | 0.48
A15U A20G U25C C40U | 0.23
A15G U43G A56U | 0.06
A15G U43C U67A | 0.19
A15U C17G A21U A28G A45G U74C | 0.28
A15G U41G A57G | 0.39

Variant | self-cleavage
A15G U54A U69C U78A | 0.25
A15G U60A U67C | 0.26
A15G U60A U67A | 0.15
A15U A21G C39U U51C U60A | 0.47
A15G U48C U69A | 0.14
A15G U41C A56G A64G U69A | 0.21
A15G U26C G52C U67C U74A | 0.11
A15G U43C U66A | 0.23
A15G U43A U49C | 0.38
A15G U43A G53U U72C A75G | 1.3
A15U A20U U31A G33A U54C U69C U80A | 0.07
A15U A18G U76C A77U | 0.43
A15U A57G A64G U72C | 0.23
A15G U60A U69A U78C | 0.16
A15G U54A C62U U67G | 0.24
A15U A21G U25C U72G | 0.05
A15U A20G U43C U58C G73A C79U C81U | 0.05
A15U A21U U80C | 0.24
A15U A18G G55U U78C | 0.2
A15U A35G U41C U51A U67C A77G | 0.79
A15G U31G U54A U69C A77C U78A | 0.19
A15U A18U U43C U48C U51C U72C | 0.12
A15G U41A U54A U72C | 0.06
A15G U54C A64G | 0.13

Variant | self-cleavage
A15G U31C C38U A45G | 0.09
A15G U43G U76C | 0.33
A15U A20G U66C U69C | 0.12
A15G U41C U66C U69C U76C | 0.37
A15G U31G U43C U74C | 0.73
A15G U41A A56G U58C U69C | 0.23
A15G U43G U58A U74C | 0.22
A15G U48G U69A | 0.2
A15U A20G A64G U69A U78C | 0.05
A15G U66C U69A C71U | 0.17
A15G U41C G46A U49C U67C | 0.08
A15U A56G U74G | 0.39
A15U A65U U67C U80C | 0.15
A15G U26C G53U A56G | 0.4
A15U A18G U25C A57G U60A A77G U78C | 0.08
A15U A64C A77U | 0.19
A15U A20G U41C U49A G61C C62U U66C | 0.06
A15U A18C U26A A64G U74A | 0.16
A15U A20G A28G U80G | 0.12
A15U A28G U54A U58A U67C | 0.08
A15U A18G A57G | 0.28
A15U A45G U49A U72A | 0.08
A15G U31C A45G U69A | 0.17
A15U A21C U41C A56G U60C | 0.08

Variant | self-cleavage
A15G U41C U49C A56U U72C | 0.24
A15G U41C A45G | 0.42
A15G U58C A77G | 0.41
A15G U31A U58C C71G G73A A75G | 0.08
A15G U54C U58C | 0.42
A15U A21G A47G U48C U80C | 0.06
A15G U41A U67C | 0.19
A15U A21G U76C | 0.22
A15U A35G A56G U72C | 1.22
A15G U31C U51C A57G | 0.23
A15U A18G A20G U54C | 0.32
A15G U60C A64G | 0.19
A15U A18G A47G U51C U54C | 0.62
A15U A21U U54C U58C A65G | 0.05
A15U A35G U41C U80A | 1.28
A15U A18G U41A U48A | 0.07
A15U A18U A35U A56C U76C | 0.2
A15G U43C A56C G70C | 0.02
A15G U31A U54C U60C | 0.34
A15U A28G A57G | 0.2
A15U A35U U43A G53A A56G A64U | 0.12
A15G U31C C40U U41C U60A | 0.43
A15G U41A A56U A64G | 0.17
A15G U31C U41C U48A A64U U80C | 0.06

Variant | self-cleavage
A15U A28G C34U A45U A77G U78A | 0.06
A15U A18G U25C | 0.4
A15U A28C A57G G61C U66C | 0.11
A15U A18U A35U A64G | 0.07
A15G U49C U54G C62U U66C | 0.09
A15U A28U U48C | 0.43
A15G U41A U48A C62U U66C U76C | 0.06
A15U A18U U67G U72C | 0.36
A15G U41C U51G | 0.58
A15G U43C A45U U80C | 0.14
A15U A21G A56G C71U | 0.35
A15G U26C C32U A35G | 0.13
A15U A28G G36U A64U | 0.09
A15U A18C A45U A65G U80C | 0.03
A15U A18G G22C | 0.27
A15G U31C A57G C62U | 0.34
A15G U48C A57G U60C U66C | 0.3
A15U A28G A47G U67C | 0.09
A15G U41A U51C | 0.09
A15U A20U A56G A57G A64U U72A U80C | 0.04
A15U A21U C68G | 0.14
A15G U26C U49C U51C | 0.12
A15U A64G A77G | 0.43
A15G U31A A57G | 0.23

Variant | self-cleavage
A15G U43A A64U | 0.47
A15G U67A U80C | 0.24
A15U A47G U54C C79A | 0.79
A15U A56U A75U | 0.53
A15G U31A U48C U80A | 0.15
A15U A18U A47G U72C | 0.13
A15U A28C U80C | 0.54
A15U A20G U43A U60A G73U | 0.22
A15U A28G U43A U74A | 0.39
A15G U60A U80C | 0.34
A15U A18G U78C | 0.15
A15U A18G C37A A47U U49C U54C U72A | 0.07
A15U A18G A20U A64G | 0.21
A15U A18U G24C U72A | 0.17
A15G U43A U49C A57U U67C | 0.1
A15G U31C U41C A64G U66C | 0.19
A15G U41C U54C A75U A77G | 0.94
A15U A35G C40A U51C A64G | 0.2
A15G U48A U49C U58G | 0.18
A15G U54C U60C | 0.49
A15G U31A A64G | 0.66
A15G U54C U80C | 0.95
A15U A18G A21G U60C C62G U72C | 0.11
